Target: histone H4 (Xenopus laevis), in the nucleosome (Xenopus laevis, UniProt P62799)
Test: cryo-EM structure

binding result: binds
B1: human SNF2H (enzyme)
chain: MSSAAEPPPPPPPESAPSKPAASIASGGSNSSNKGGPEGVAAQAVASAASAGPADAEMEEIFDDASPGKQKEIQEPDPTYEEKMQTDRANRFEYLLKQTELFAHFIQPAAQKTPTSPLKMKPGRPRIKKDEKQNLLSVGDYRHRRTEQEEDEELLTESSKATNVCTRFEDSPSYVKWGKLRDYQVRGLNWLISLYENGINGILADEMGLGKTLQTISLLGYMKHYRNIPGPHMVLVPKSTLHNWMSEFKRWVPTLRSVCLIGDKEQRAAFVRDVLLPGEWDVCVTSYEMLIKEKSVFKKFNWRYLVIDEAHRIKNEKSKLSEIVREFKTTNRLLLTGTPLQNNLHELWSLLNFLLPDVFNSADDFDSWFDTNNCLGDQKLVERLHMVLRPFLLRRIKADVEKSLPPKKEVKIYVGLSKMQREWYTRILMKDIDILNSAGKMDKMRLLNILMQLRKCCNHPYLFDGAEPGPPYTTDMHLVTNSGKMVVLDKLLPKLKEQGSRVLIFSQMTRVLDILEDYCMWRNYEYCRLDGQTPHDERQDSINAYNEPNSTKFVFMLSTRAGGLGINLATADVVILYDSDWNPQVDLQAMDRAHRIGQTKTVRVFRFITDNTVEERIVERAEMKLRLDSIVIQQGRLVDQNLNKIGKDEMLQMIRHGATHVFASKESEITDEDIDGILERGAKKTAEMNEKLSKMGESSLRNFTMDTESSVYNFEGEDYREKQKIAFTEWIEPPKRERKANYAVDAYFREALRVSEPKAPKAPRPPKQPNVQDFQFFPPRLFELLEKEILFYRKTIGYKVPRNPELPNAAQAQKEEQLKIDEAESLNDEELEEKEKLLTQGFTNWNKRDFNQFIKANEKWGRDDIENIAREVEGKTPEEVIEYSAVFWERCNELQDIEKIMAQIERGEARIQRRISIKKALDTKIGRYKAPFHQLRISYGTNKGKNYTEEEDRFLICMLHKLGFDKENVYDELRQCIRNSPQFRFDWFLKSRTAMELQRRCNTLITLIERENMELEEKEKAEKKKRGPKPSTQKRKMDGAPDGRGRKKKLKL
